From PMC9000588, “Structure/Function Analysis of Truncated Amino-Terminal ACE2 Peptide Analogs That Bind to SARS-CoV-2 Spike Glycoprotein” (Molecules, 2022)
Numbered stars: 1 amine (or outer) side, 2 acyl side, 3 side chain; on linkers, the order of the positions; unused ones are H or OH. Bridge positions count the residues as written; N and C are the ends. Ends that are not written are not given here. Suc = O=C(CCC(=O)[*:2])[*:1]

Target: T1, recombinant SARS-CoV-2 spike glycoprotein receptor-binding domain (SARS-CoV-2, UniProt P0DTC2)
T1 construct: also called SARS-CoV-2 spike protein RBD; SPG RBD; source: bought: Sino Biological; expressed via baculovirus-insect cells; not shown: His tag (polyhistidine), C-terminal, kept
Test: SPR
Details: both partners purified

Row | Binder | Kd | kon
1 | KFNHEAEDLFEKLM-NH2 [Peptide 2 (KFNHEAEDLFEKLM-NH2)] | 23.1 mM | 1.15 M⁻¹ s⁻¹
2 | KFNHEAEDLFEKLM (head-to-tail cycle (amide bond between the N-terminus and the C-terminus), also called cyclic 14-mer) [Peptide 3 (KFNHEAEDLFEKLM, head-to-tail cycle)] | 0.518 mM | 15.1 M⁻¹ s⁻¹
3 | Suc-KFNHEAEDLFEKLM-NH2 (SMILES CSCC[C@H](NC(=O)[C@H](CC(C)C)NC(=O)[C@H](CCCCN)NC(=O)[C@H](CCC(=O)O)NC(=O)[C@H](Cc1ccccc1)NC(=O)[C@H](CC(C)C)NC(=O)[C@H](CC(=O)O)NC(=O)[C@H](CCC(=O)O)NC(=O)[C@H](C)NC(=O)[C@H](CCC(=O)O)NC(=O)[C@H](Cc1c[nH]cn1)NC(=O)[C@H](CC(N)=O)NC(=O)[C@H](Cc1ccccc1)NC(=O)[C@H](CCCCN)NC(=O)CCC(=O)O)C(N)=O) [Peptide 4 (Suc-KFNHEAEDLFEKLM-NH2)] | 1.37 mM | 13.9 M⁻¹ s⁻¹
4 | Suc-LLEKLLEWLE-NH2 (SMILES CC(C)C[C@H](NC(=O)CCC(=O)O)C(=O)N[C@@H](CC(C)C)C(=O)N[C@@H](CCC(=O)O)C(=O)N[C@@H](CCCCN)C(=O)N[C@@H](CC(C)C)C(=O)N[C@@H](CC(C)C)C(=O)N[C@@H](CCC(=O)O)C(=O)N[C@@H](Cc1c[nH]c2ccccc12)C(=O)N[C@@H](CC(C)C)C(=O)N[C@@H](CCC(=O)O)C(N)=O) [Peptide 9 (Suc-LLEKLLEWLE-NH2)] | 3.37 mM | 5.83 M⁻¹ s⁻¹
5 | Suc-KFNHEAEDLFEKLFEELFEDM-NH2 (SMILES CSCC[C@H](NC(=O)[C@H](CC(=O)O)NC(=O)[C@H](CCC(=O)O)NC(=O)[C@H](Cc1ccccc1)NC(=O)[C@H](CC(C)C)NC(=O)[C@H](CCC(=O)O)NC(=O)[C@H](CCC(=O)O)NC(=O)[C@H](Cc1ccccc1)NC(=O)[C@H](CC(C)C)NC(=O)[C@H](CCCCN)NC(=O)[C@H](CCC(=O)O)NC(=O)[C@H](Cc1ccccc1)NC(=O)[C@H](CC(C)C)NC(=O)[C@H](CC(=O)O)NC(=O)[C@H](CCC(=O)O)NC(=O)[C@H](C)NC(=O)[C@H](CCC(=O)O)NC(=O)[C@H](Cc1c[nH]cn1)NC(=O)[C@H](CC(N)=O)NC(=O)[C@H](Cc1ccccc1)NC(=O)[C@H](CCCCN)NC(=O)CCC(=O)O)C(N)=O) [Peptide 7 (Suc-KFNHEAEDLFEKLFEELFEDM-NH2)] | 5.05 mM | 4.29 M⁻¹ s⁻¹
6 | KFNDEAEDLFKLFEELFEDM-NH2 [Peptide 10 (KFNDEAEDLFKLFEELFEDM-NH2)] | 2.66 mM | 6.81 M⁻¹ s⁻¹
7 | KFNHEAEDLFEKLM-OH (also called ACE2(31-40)EKLM(82); the basic 14-mer) [Peptide 1 (KFNHEAEDLFEKLM-OH)] | 2.84 mM | 4.62 M⁻¹ s⁻¹
8 | GLFKEALEELWEA-NH2 [Peptide 8 (GLFKEALEELWEA-NH2)] | 2.53 mM | 5.39 M⁻¹ s⁻¹
9 | CKFNHEAEDLFEKLMC-NH2 (disulfide 1-16; N-terminus assumed; SMILES CSCC[C@@H]1NC(=O)[C@H](CC(C)C)NC(=O)[C@H](CCCCN)NC(=O)[C@H](CCC(=O)O)NC(=O)[C@H](Cc2ccccc2)NC(=O)[C@H](CC(C)C)NC(=O)[C@H](CC(=O)O)NC(=O)[C@H](CCC(=O)O)NC(=O)[C@H](C)NC(=O)[C@H](CCC(=O)O)NC(=O)[C@H](Cc2c[nH]cn2)NC(=O)[C@H](CC(N)=O)NC(=O)[C@H](Cc2ccccc2)NC(=O)[C@H](CCCCN)NC(=O)[C@@H](N)CSSC[C@@H](C(N)=O)NC1=O) [Peptide 6 (CKFNHEAEDLFEKLMC-NH2, S=S bridge)] | 1.83 mM | 6.84 M⁻¹ s⁻¹
10 | Ac-KFNHEAEDLFEKLM-OH [Peptide 5 (Ac-KFNHEAEDLFEKLM-OH)] | 42.9 mM | 0.64 M⁻¹ s⁻¹
